Measurements as given in the supplement of paper PMC9513381.
Recombinant human monoclonal antibodies (heavy:light variable regions). ELISA EC50 on the named antigen, from 10 µg/ml down; IC50 / IC90 against spike pseudovirus on 293T-ACE2 cells, 48 h; lower = stronger. Calls: IC50 above 1,000 ng/ml = non-neutralizing; EC50 above 1,000 ng/ml = non-binder. The source prints 1000 for neutralization that was not reached; it is given as >1000 ng/ml. Only binders of the Wuhan-Hu-1 domain have neutralization values.

B1: B2063 (protein)
chain 1: EVQLVQSGAEVKKPGESLRISCKGSGYPFTTFWITWVRQRPGKGLEWMGRIDPSDSETDYSPSFQGHVTISTDKSINTAYLHWSSLKASDTAMYYCATAVSPGTGWFAPWGQGTLVTVSS
chain 2: SYVLTQPPSVSVAPGKTARITCGGDKIGSKSVHWYQQKPGQAPVLVIYYDSDRPSGIPERFSGSNSGNTATLTISRVEAGDEADYYCQVWDSDSAVFGTGTKVSVL
B2: B2116 (protein)
chain 1: QVQLVQSGAEVKKPGSSVKVSCKASGGTFSNYGISWVRQAPGQGLEWIGGIVPIFVSAKYAQKFQGRVTITADRLTTTAYMELSSLRSDDTAVYYCARATDETILHKIDCGGDCHFYYAMDVWGQGTTVTVSS
chain 2: EIVLTQSPGTLSLSPGERATLSCRASQSVSHTYLAWYQQKPGQAPGLLIYGASSRATGIPDRFSGSGSGADFTLTISRLEPEDFAVYYCQLYGSSPVTFGQGTKVEIK
B3: B2112 (protein)
chain 1: EVQLVQSGAEVKKPGESLKISCKGSGYSFISYWIGWVRQMPGKGLEWMGIIHPQESETRGSQSFQGQVTISADKSIITAYLQWSSLKASDTAMYYCVRYSSSPSGWFDPWGQGTLVTVSS
chain 2: QSVLTQPPSASGTPGQRVTISCSGSSSNIGGNAVSWYQQLPRTAPKLLIYNNNQRPSGVPDRFSGSKSGTSASLAISGLQSEDEADYYCAAWDDSLNGVVFGGGTKLTVL
B4: B2119 (protein)
chain 1: VQLVESGGGVVQPGRSLRLSCAASGFTFRNYGMHWVRQAPGKGLEWVAMISYDGDNKYYVDSAKGRFTISRDNSKNTLYLQMSSLRADDTAVYYCAKGVGPYCSGGSCYPGALDYWGQGTLVTVSS
chain 2: IRMTQSPSSLSASVGDRVTITCQASQDIRNYVNWYQQHPGKAPKLLIYDASNLEAGVPSRFSGSGSGTDFTFTISGLQPEDFATYYCQQYDNYPPFTFGGGTKVEIK
B5: B2061 (protein)
chain 1: QVQLVESGGGVVQPGRSLRLSCAASGFTFSSYGMHWVRQAPGKGLEWVAVIWYDGSGKHYADSAKGRFTISRDNSKNTLYLQMNSLRAEDTAVYYCARDESGSYPVSWFDPWGQGTLVTVSS
chain 2: DIQMTQSPSSLSASVGDRVTITCRASQSIGIYLNWYQQRPGKGPNLLIYAASSLQSGVPSRFSGSGSGTEFTLTISSLQPEDFATYYCQQSYNTPPWTFGQGTKVEIK
B6: B2059 (protein)
chain 1: QVQLQESGPGLVKPSQTLSLTCTVSGDSISRGGFYWNWIRQHPGKGLEWIGNIYYSGSTYYNPSLKSRVTISVDTSKNQFSLKLNSVTAADTAVYYCARDYGGNAQQFSFWGQGTLVTVSS
chain 2: IRMTQSPSSLSASVGDRVTITCQASQDINNYLNWYQQKPGKAPKLLIYDASNLETGVPSRFTGSGSGTDFTFTISSLQPEDIATYYCQHYHNFPLTFGGGTKVEIK
B7: B2065 (protein)
chain 1: EVQLVESGGGLAQPGGSLRLSCGGSGFTFGSHDMHWVRQATGKGLEWVAAITTAGDTYYSGSAKGRFTISRDNAKNSFYLQMNSLRGEDTAVYYCAFVSWNRYCSRSSCHGLGVWGQGTTVTVSS
chain 2: SYELTQSLSVSVALGQTATITCGGDNLRNRNVHWYQQRPGQAPVLILYRDYNRPSGIPERFSGSNSGNTATLTISRAQAGDEADYYCQVWDSDTGVVFGGGTKLTVL
B8: B2113 (protein)
chain 1: QVQLVQSGAEVKKPGASVKVSCKASGYTFSSYGISWVRQAPGQGLEWMGWISGYSGNTKYAQKLQGRVTMTTDTSTSTAYMELRSLRSDDTAVYYCARNSGSYYLGVEYWGQGALVTVSS
chain 2: NFMLTQPHSVSESPGKTVTISCTGSSGSIASNYVQWYQQRPGSAPTTVIYEDNQRPSGVPDRFSGSIDSSSNSASLTISGLKTEDEADYYCQSSDSGNWVFGGGTKLTVL
B9: B2117 (protein)
chain 1: QVQLVQSGADVRQPGASVKVSCKASGYIFPNYGISWVRQAPGQGLEWMGWISAHDDQTNYAQRLQGRITMTTDPSTSTAYMELRGLRSDDTAMYYCAREGAGAFFAWSSTWHGERAAFDIWGQGTMVTVSS
chain 2: EIVLTQSPGTLSLSPGERAALSCRASQSVTRSYLAWYQQKPGQAPRLLIFDASSRATGIPDRFSGSASGTDFTLTISRLEPEDFAVYYCQLYGTSSTFGQGTKVEIK
B10: B2066 (protein)
chain 1: EVQLVESGGGLVQPGGSLRLSCAASGFTFSTYDMHWVRQATGKGLEWVSTIGTSGDTYYLDSVKGRFTISRENAKNSLYLQMNSLRAEDTAVYYCARGHATSMVTVFDFWGQGSLVTVSS
chain 2: DIQMTQSPSSLSASVGDRVTITCRASQSISTYLNWYQQKPGKAPKLLIYAASSLHSGVPSRFSGRGSGRDFTLTISSLQPEDFATYFCQQSYINPHVTFGGGTKVEIK
B11: B2058 (protein)
chain 1: EVQLVESGGGLIQPGGSLRLSCAASGLTVSSNYMSWVRQAPGKGLEWVSVIYPGGSTFYADSVKGRFTISRDNSKNTLYLQLNSLRADDTAVYFCARGDGYTDYYYGLDVWGQGTTVTVSS
chain 2: DIQLTQSPSSLSASVGDRVTITCRASQSISSYLNWYQQKPGKAPKLLIYAASSLQSGVPSRFSGSGSGTDFTLTISSLQPEDFATYYCQQRGFGQGTKVEIK
B12: B2060 (protein)
chain 1: QVQLVQSGAEVKKPGASVKVSCKASGNTFSVYYIHWVRQAPGQGLEWMGIFNPSGGSTTYAQKFQGRVTMTRDTSTSTVYMELSSLRSDDTAVYYCARGGLVPATREPFDIWGQGTMVTVSS
chain 2: DIQMTQSPSTLSASVGDRVTITCRASQSISYWLAWYQQKPGKAPKLLIYKASSLESGVPSRFSGSGSGTEFTLTISSLQPDDFATYFCQQYNSFPWTFGQGTKVEIK
B13: B2064 (protein)
chain 1: QVQLVQSGAEVKKPGSSVNVSCKASGGTLNIYTFSWVRQAPGQGLEWVGTIVPLVGKANYPHKFQGRVTITADKSTSTVNMELSSLRSEDTAVYYCASEVLDNLRDGYNFWGQGTLVTVSS
chain 2: DIQMTQSPSSLSASVGDRVTITCRASQSVSSYLNWYQQKPGKAPKLLIYAVSSLQSGVPSRFSGSGSGTDFTLTISSLQPEDFATYYCQQTYNTLTFGGGTKVEIK
B14: B2006 (protein)
chain 1: EVQLVQSGAEVKKPGESLKISCKGFGSSFTNYWIGWVRQMPGKGLEWMGSVYAGDSDTRYSPSFQGQVTVSADKSITTAYLQWTSLKASDTAMYFCARASQGNYFDFWGQGTLVTVSS
chain 2: DIQMTQSPSTLSASVGDRVTITCRASQSISRWLAWYQQKPGKAPKLLIYDASILESGVPSRFSGSGSGTDFTLTISSLQPDDYATYYCQQFYSNLYTFGQGTKLEIK

Assays:
[1] = molecular target: SARS-CoV-2 Wuhan-Hu-1 spike pseudovirus; test: pseudovirus neutralization IC50; higher = weaker neutralization
Method: (§1)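 Single-round luciferase reporter pseudovirus mixed with antibody dilutions and put on 293T-ACE2 cells for 48 h; signal relative to no-antibody wells, four-parameter fit.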

[2] = molecular target: SARS-CoV-2 Wuhan-Hu-1 spike pseudovirus; test: pseudovirus neutralization IC90; higher = weaker neutralization
Method: as §1

[3] = molecular target: SARS-CoV-2 Delta (B.1.617.2) spike RBD; test: ELISA binding EC50; higher = weaker binding; ELISA of recombinant human antibody on coated antigen, from 10 µg/ml in fourfold dilutions; four-parameter fit.
[4] = molecular target: SARS-CoV-2 Omicron BA.1 spike protein; test: as above
[5] = molecular target: SARS-CoV-2 Wuhan-Hu-1 spike receptor-binding domain; test: as above

Row | Binder | pseudovirus neutralization IC50 [1] | pseudovirus neutralization IC90 [2] | ELISA binding EC50 [3] | ELISA binding EC50 [4] | ELISA binding EC50 [5]
1 | B1 | 0.162 µg/mL | > 1 µg/mL | 0.0125 µg/mL | 0.00763 µg/mL | 0.00402 µg/mL
2 | B2 | 0.00263 µg/mL | 0.0191 µg/mL | > 1 µg/mL | > 1 µg/mL | 0.00245 µg/mL
3 | B3 | > 1 µg/mL | > 1 µg/mL | > 1 µg/mL | 0.774 µg/mL | 0.0115 µg/mL
4 | B4 | > 1 µg/mL | > 1 µg/mL | 0.0422 µg/mL | 0.0514 µg/mL | 0.00176 µg/mL
5 | B5 | 0.058 µg/mL | 0.57 µg/mL | 0.00852 µg/mL | 0.0347 µg/mL | 0.0029 µg/mL
6 | B6 | > 1 µg/mL | > 1 µg/mL | 0.00913 µg/mL | 0.00536 µg/mL | 0.00291 µg/mL
7 | B7 | 0.00176 µg/mL | 0.015 µg/mL | 0.143 µg/mL | 0.00251 µg/mL | 0.00271 µg/mL
8 | B8 | 0.6 µg/mL | > 1 µg/mL | 0.17 µg/mL | 0.362 µg/mL | 0.00733 µg/mL
9 | B9 | 0.0115 µg/mL | 0.0528 µg/mL | 0.00755 µg/mL | 0.0607 µg/mL | 0.00399 µg/mL
10 | B10 | > 1 µg/mL | > 1 µg/mL | 0.0145 µg/mL | 0.0133 µg/mL | 0.00772 µg/mL
11 | B11 | 0.00634 µg/mL | 0.0944 µg/mL | 0.0124 µg/mL | 0.145 µg/mL | 0.00186 µg/mL
12 | B12 | > 1 µg/mL | > 1 µg/mL | 0.056 µg/mL | 0.0224 µg/mL | 0.00779 µg/mL
13 | B13 | 0.0127 µg/mL | 0.175 µg/mL | 0.00189 µg/mL | 0.0345 µg/mL | 0.00991 µg/mL
14 | B14 | > 1 µg/mL | > 1 µg/mL | 0.00574 µg/mL | 0.00908 µg/mL | 0.00222 µg/mL
